Laboratory results taken from the RNAGym collection of RNA variant scans (doi:10.1101/gad.245936.114).
Variants at the background level are over-represented here.

B1: tRNA (parent)
chain: CUCUCGGUAGCCAAGUUGGUUUAAGGCGCAAGACUUUAAUUUAUCACUACGAAAUCUUGAGAUCGGGCGUUCGACUCGCCCCCGGGAGAUUUUUUCCUCGAGCAA

Variants of: B1
Experiment: nonsense suppression (GFP-seq) (ratio to wild type); higher = more function; SUP4oc tRNA, yeast GFP reporter sort-seq
Outline: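 Yeast carrying genome-integrated SUP4oc tRNA variants from a library with ~3% random mutations were grown in raffinose/galactose medium with 80 mg/L adenine. Each strain also carried a galactose-driven GFP ochre reporter and RFP. Cells were sorted into GFP/RFP bins, and each bin was Illumina-sequenced (phred ≥30). Nonsense suppression (GFPSEQ) is the bin median GFP/RFP, weighted by each variant's estimated cell share per bin, relative to wild-type SUP4oc; variants needed ≥100 reads and ≥30 cells.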

| Variant | nonsense suppression |
| --- | --- |
| U8C U58A G73U | ≤ 0.026 |
| U8C U58G G85A | ≤ 0.026 |
| U8C U63A | 0.0619 |
| U8C U63C C75U G84C | ≤ 0.026 |
| U8G A9C A24C C34G U70C | ≤ 0.026 |
| U8G A9C C12G U63G C81A | ≤ 0.026 |
| U8G A9C C83G | ≤ 0.026 |
| U8G A9C U17C G66U | ≤ 0.026 |
| U8G A9C U58C | ≤ 0.026 |
| U8G A9G A62C C77A | ≤ 0.026 |
| U8G A9G C11A A24G | ≤ 0.026 |
| U8G A9U C11A G26U | ≤ 0.026 |
| U8G A9U G88A | ≤ 0.026 |
| U8G A13C G28C C64U U70A C72G G84U | ≤ 0.026 |
| U8G A13G U16A A31G G73C | ≤ 0.026 |
| U8G A14G U17C G18U A60C G67U | ≤ 0.026 |
| U8G A14U | ≤ 0.026 |
| U8G A23C | ≤ 0.026 |
| U8G A23C G86A | ≤ 0.026 |
| U8G A23G G26C | ≤ 0.026 |
| U8G A23G G67A U71C C77U | ≤ 0.026 |

| Variant | nonsense suppression |
| --- | --- |
| U8G A24G | ≤ 0.026 |
| U8G A30U G32C | ≤ 0.026 |
| U8G A31C U57G G88A | ≤ 0.026 |
| U8G A31G | ≤ 0.026 |
| U8G A31U | ≤ 0.026 |
| U8G A33G C80U G84A | ≤ 0.026 |
| U8G A54G | ≤ 0.026 |
| U8G A60U G61C G69C | ≤ 0.026 |
| U8G A87U | ≤ 0.026 |
| U8G C11A A23U G84A | ≤ 0.026 |
| U8G C11G U16A C56G A60C G61U | ≤ 0.026 |
| U8G C11U | ≤ 0.026 |
| U8G C11U A13C G32U G69A | ≤ 0.026 |
| U8G C12A A13C A30G | ≤ 0.026 |
| U8G C12U A31U C81A | ≤ 0.026 |
| U8G C12U G66U | ≤ 0.026 |
| U8G C12U U63A G69U | ≤ 0.026 |
| U8G C27A G88U | ≤ 0.026 |
| U8G C27U U71C U76A | ≤ 0.026 |
| U8G C29U C64G G69A C82G | ≤ 0.026 |
| U8G C34A G61A A62U C80A C81U | ≤ 0.026 |

| Variant | nonsense suppression |
| --- | --- |
| U8G C56G C77G | ≤ 0.026 |
| U8G C72G C83U | ≤ 0.026 |
| U8G C72U U76G G88A | ≤ 0.026 |
| U8G C75G G85C | ≤ 0.026 |
| U8G C82G C83U G88C | ≤ 0.026 |
| U8G G10A G28C U76G | ≤ 0.026 |
| U8G G10A U20G | ≤ 0.026 |
| U8G G10C G15C U21A | ≤ 0.026 |
| U8G G10U | ≤ 0.026 |
| U8G G15C | ≤ 0.026 |
| U8G G18A A74U | ≤ 0.026 |
| U8G G18C A30G G67U | ≤ 0.026 |
| U8G G18C G59A | ≤ 0.026 |
| U8G G19U C81A | ≤ 0.026 |
| U8G G19U G28U | ≤ 0.026 |
| U8G G19U G28U G78A | ≤ 0.026 |
| U8G G19U U20A C80A G88C | ≤ 0.026 |
| U8G G19U U22C G32U A33G | ≤ 0.026 |
| U8G G25A | ≤ 0.026 |
| U8G G25A C34A | ≤ 0.026 |
| U8G G25C C68U | ≤ 0.026 |

| Variant | nonsense suppression |
| --- | --- |
| U8G G25C G32A U76G | ≤ 0.026 |
| U8G G25C U57C G69A | ≤ 0.026 |
| U8G G26A C56U C64G G66U G78U A89U | ≤ 0.026 |
| U8G G26A U70G U71A U76A | ≤ 0.026 |
| U8G G26C C27U | ≤ 0.026 |
| U8G G28A A30C A54U | ≤ 0.026 |
| U8G G28C C56A G69U | ≤ 0.026 |
| U8G G28U A31C G67A A89U | ≤ 0.026 |
| U8G G32A C79A | ≤ 0.026 |
| U8G G32C U57A A62U | ≤ 0.026 |
| U8G G61A A74G | ≤ 0.026 |
| U8G G61C | ≤ 0.026 |
| U8G G61U | ≤ 0.026 |
| U8G G66A | ≤ 0.026 |
| U8G G67C G85C | ≤ 0.026 |
| U8G G73U | ≤ 0.026 |
| U8G G78C | ≤ 0.026 |
| U8G G78U | ≤ 0.026 |
| U8G G85A | ≤ 0.026 |
| U8G U16A | ≤ 0.026 |
